Test results: the supplement of paper PMC4967469

What was measured:
Experiment in all cases: Viability of human cancer cell lines after 72 h of drug (GDSC screen)
XMD13-2 = compound: O=C(NC1CC1)c1cccc(-c2ccc3c(NC(=O)C4CC4)n[nH]c3c2)c1 [XMD13-2]; details: top dose 10.24 µM; top dose inferred
Procedure: (§1)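 Human cancer cell lines in 384-well plates, medium with 10% serum, drug for 72 h over a 256-fold dose range (nine 2-fold or five 4-fold steps up to the top dose). Adherent lines were fixed and stained with the nucleic acid dye Syto60, suspension lines read with resazurin; signal relative to control wells, capped at 0 and 100%. One two-parameter sigmoid per drug and line, fitted in a mixed model over all curves with the slope shared within a line.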

SNX-2112 = compound: CC1(C)CC(=O)c2c(C(F)(F)F)nn(-c3ccc(C(N)=O)c(N[C@H]4CC[C@H](O)CC4)c3)c2C1 [SNX-2112]; details: top dose 2.56 µM
Procedure: as §1

PF-562271 = compound: CN(c1ncccc1CNc1nc(Nc2ccc3c(c2)CC(=O)N3)ncc1C(F)(F)F)S(C)(=O)=O [PF-562271]; details: top dose 2.56 µM; top dose inferred
Procedure: as §1

Vinblastine = compound: CC[C@]1(O)C[C@@H]2CN(CCc3c([nH]c4ccccc34)[C@@](C(=O)OC)(c3cc4c(cc3OC)N(C)[C@H]3[C@@](O)(C(=O)OC)[C@H](OC(C)=O)[C@]5(CC)C=CCN6CC[C@]43[C@@H]65)C2)C1 [Vinblastine]; details: top dose 0.1 µM; top dose inferred
Procedure: as §1

Afatinib = compound: CN(C)C/C=C/C(=O)Nc1cc2c(Nc3ccc(F)c(Cl)c3)ncnc2cc1O[C@H]1CCOC1 [Afatinib]
Procedure: as §1

[1] = top dose 0.5 µM, screen: GDSC drug entry 1032
[2] = top dose 10 µM, screen: GDSC drug entry 1377, top dose inferred

Cell Line | AUC (XMD13-2) | IC50 (XMD13-2) [nM] | AUC (SNX-2112) | IC50 (SNX-2112) [nM] | AUC (PF-562271) | IC50 (PF-562271) [nM] | AUC (Vinblastine) | IC50 (Vinblastine) [nM] | AUC (Afatinib; [1]) | IC50 (Afatinib; [1]) [nM] | AUC (Afatinib; [2]) | IC50 (Afatinib; [2]) [nM]
Hep 3B2_1-7 (liver, adherent) | 0.977 | > 10200 | 0.486 | 146 | 0.878 | > 2560 | 0.596 | 11.5 | 0.985 | > 500 | 0.961 | > 10000
Hs633T (fibrosarcoma, adherent) | 0.933 | > 10200 | 0.338 | 62.4 | 0.886 | 1930 | 0.597 | 11 | 0.962 | > 500 | 0.99 | > 10000
Hs683 (glioma, adherent) | 0.916 | > 10200 | 0.643 | 400 | 0.937 | > 2560 | 0.629 | 14.2 | 0.981 | > 500 | 0.984 | > 10000
Hs746T (stomach, adherent) | 0.72 | 3380 | 0.731 | 929 | 0.981 | > 2560 | 0.751 | 43.5 | 0.974 | > 500 | 0.969 | > 10000
Hs766T (pancreas, adherent) | 0.981 | > 10200 | 0.973 | > 2560 | 0.971 | > 2560 | 0.838 | > 100 | 0.976 | > 500 | 0.965 | > 10000
Hs939-T (melanoma, adherent) | 0.969 | > 10200 | 0.946 | > 2560 | 0.923 | > 2560 | 0.693 | 23 | 0.984 | > 500 | 0.983 | > 10000
HuCCT1 (biliary tract, adherent) | 0.903 | > 10200 | 0.599 | 309 | 0.899 | > 2560 | 0.641 | 16.1 | 0.966 | > 500 | 0.866 | > 10000
HuO9 (osteosarcoma, adherent) | 0.974 | > 10200 | 0.874 | > 2560 | 0.909 | > 2560 | 0.62 | 13.9 | 0.963 | > 500 | 0.965 | > 10000
HuO-3N1 (osteosarcoma, adherent) | 0.955 | > 10200 | 0.917 | > 2560 | 0.959 | > 2560 | 0.619 | 14.8 | 0.983 | > 500 | 0.968 | > 10000
HuP-T3 (pancreas, adherent) | 0.938 | > 10200 | 0.753 | 1030 | 0.931 | > 2560 | 0.554 | 9.05 | 0.956 | > 500 | 0.966 | > 10000
HuP-T4 (pancreas, adherent) | 0.87 | > 10200 | 0.392 | 79.2 | 0.935 | > 2560 | 0.631 | 14.7 | 0.869 | > 500 | 0.899 | > 10000

Lines with a small IC50 respond at low doses; a fit beyond the top or the lowest dose is shown as a bound at that dose. For AUC the same curve is integrated over the 256-fold range of doses and scaled to a fraction; values near 1 show little effect. For part of these data: An inferred top dose is not printed in the source and was worked back from the curve model. For part of these data: Where an entry number is given, a second screen of the drug exists; the two often differ.
